Measurements from patent publication US20110263827A1 (AbbVie / Abbott, published 2011).

B1: DVD773 (bispecific antibody)
VH: QVQLQESGPGLVKPSQTLSLTCTVSGYSISSDFAWNWIRQPPGKGLEWMGYISYSGNTRYQPSLKSRITISRDTSKNQFFLKLNSVTAADTATYYCVTAGRGFPYWGQGTLVTVSSASTKGPSVFPLAPQVQLQQSGAELARPGASVKMS[about 80 residues cut from this listing]WGQGTTLTVSS
VL: not shown
notes: DVD-Ig; HC L, LC L; variable parts only
B2: DVD804 (bispecific antibody)
VH: QVQLQQSGAELARPGASVKMS[about 80 residues cut from this listing]WGQGTTLTVSSASTKGPSVFPLAPQVQLQESGPGLVKPSQTLSLTCTVSGYSISSDFAWNWIRQPPGKGLEWMGYISYSGNTRYQPSLKSRITISRDTSKNQFFLKLNSVTAADTATYYCVTAGRGFPYWGQGTLVTVSS
VL: not shown
notes: DVD-Ig; HC L, LC S; variable parts only
B3: DVD803 (bispecific antibody)
VH: QVQLQESGPGLVKPSQTLSLTCTVSGYSISSDFAWNWIRQPPGKGLEWMGYISYSGNTRYQPSLKSRITISRDTSKNQFFLKLNSVTAADTATYYCVTAGRGFPYWGQGTLVTVSSASTKGPSVFPLAPQVQLQQSGAELARPGASVKMS[about 80 residues cut from this listing]WGQGTTLTVSS
VL: not shown
notes: as for B2
B4: DVD332 (bispecific antibody)
VH: QVQLQQSGAELARPGASVKMS[about 80 residues cut from this listing]WGQGTTLTVSSASTKGPQVQLQESGPGLVKPSQTLSLTCTVSGYSISSDFAWNWIRQPPGKGLEWMGYISYSGNTRYQPSLKSRITISRDTSKNQFFLKLNSVTAADTATYYCVTAGRGFPYWGQGTLVTVSS
VL: not shown
notes: DVD-Ig; HC S, LC S; variable parts only
B5: DVD331 (bispecific antibody)
VH: QVQLQESGPGLVKPSQTLSLTCTVSGYSISSDFAWNWIRQPPGKGLEWMGYISYSGNTRYQPSLKSRITISRDTSKNQFFLKLNSVTAADTATYYCVTAGRGFPYWGQGTLVTVSSASTKGPQVQLQQSGAELARPGASVKMS[about 80 residues cut from this listing]WGQGTTLTVSS
VL: not shown
notes: as for B4
B6: DVD834 (bispecific antibody)
VH: QVQLQQSGAELARPGASVKMS[about 80 residues cut from this listing]WGQGTTLTVSSASTKGPQVQLQESGPGLVKPSQTLSLTCTVSGYSISSDFAWNWIRQPPGKGLEWMGYISYSGNTRYQPSLKSRITISRDTSKNQFFLKLNSVTAADTATYYCVTAGRGFPYWGQGTLVTVSS
VL: not shown
notes: DVD-Ig; HC S, LC L; variable parts only
B7: DVD833 (bispecific antibody)
VH: QVQLQESGPGLVKPSQTLSLTCTVSGYSISSDFAWNWIRQPPGKGLEWMGYISYSGNTRYQPSLKSRITISRDTSKNQFFLKLNSVTAADTATYYCVTAGRGFPYWGQGTLVTVSSASTKGPQVQLQQSGAELARPGASVKMS[about 80 residues cut from this listing]WGQGTTLTVSS
VL: not shown
notes: as for B6
B8: DVD774 (bispecific antibody)
VH: QVQLQQSGAELARPGASVKMS[about 80 residues cut from this listing]WGQGTTLTVSSASTKGPSVFPLAPQVQLQESGPGLVKPSQTLSLTCTVSGYSISSDFAWNWIRQPPGKGLEWMGYISYSGNTRYQPSLKSRITISRDTSKNQFFLKLNSVTAADTATYYCVTAGRGFPYWGQGTLVTVSS
VL: not shown
notes: as for B1

Target: EGFR on cells (human cancer cell lines; EGFR-expressing target cells) (human, UniProt P00533)
Experiment: cell-based or functional assay

| Binder | rCTL activity IC50 (pM), impedance based [pM] |
| --- | --- |
| B1 | 16 |
| B2 | 0.09 |
| B3 | 42 |
| B4 | 0.03 |
| B5 | > 200000 |
| B6 | 0.08 |
| B7 | 12 |

Target: T1, CD3 on Jurkat cells (UniProt P07766)
T1 construct: whole, on cells; CD3 is a complex
Experiment: FACS on Jurkat cells

| Binder | EC50 [nM] |
| --- | --- |
| B2 | 0.65 |
| B4 | 0.775 |
| B6 | 0.7 |
| B8 | 0.89 |

Target: T2, EGFR (UniProt P00533 fragment, limits assumed, biotinylated)
T2 construct: ELISA antigen; construct not described
Experiment: direct bind ELISA, N-term VD;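 also: antibody or DVD-Ig preparations bound to immobilized target antigen on ELISA plates, 1 h at room temperature, TMB detection read as absorbance at 450 nm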

| Binder | EC50 [nM] |
| --- | --- |
| B1 | 4.96 |
| B3 | 0.23 |
| B5 | 3.68 |
| B7 | 3.03 |

Target: T3, EGFR de2-7 on U87MG-de2-7 cells (human, UniProt P00533)
T3 construct: whole, on cells; also called U287IΔ2-7
Experiment: FACS on U87MG de2-7 cells, relative to parent antibody

| Binder | FACS % of parent [%] |
| --- | --- |
| B1 | 105 |
| B2 | 70 |
| B3 | 110 |
| B4 | 40 |
| B5 | 115 |
| B6 | 65 |
| B7 | 110 |
| B8 | 70 |

Target: T2, EGFR
Experiment: direct bind ELISA, C-term VD;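 also: ELISA with antibody or DVD-Ig preparations applied to target antigen-coated plates for 1 h at room temperature, TMB colour development, absorbance read at 450 nm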

| Binder | EC50 [nM] |
| --- | --- |
| B2 | 158 |
| B4 | 62.1 |
| B6 | 26.7 |
| B8 | 19.3 |
